{"source": "PubChem BioAssay AID2546", "about": "(National Center for Advancing Translational Sciences (NCATS), 2010)", "note": "Screen size: about 310,000 compounds; about 11,000 (3.5%) were called active. The shares of active, inactive and inconclusive entries below differ from those in the screen. The call rests on the fitted dose curve; in most records, active means well fitted inhibition curve with a large enough effect; inconclusive means small, poorly fitted or top-dose-only effect, or effect the other way; inactive means flat fitted curve, though single readings scatter. No potency is given beside an inconclusive call; the fits are too rough. On the % scale 0 is the no-effect control and ±100 the full control effect; potency means the concentration at half of the fitted maximal effect; tags describe the fitted curve by direction and shape.", "data": [{"test": "VP16 counterscreen qHTS for inhibitors of ROR gamma transcriptional activity;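 further: Gal4-VP16 expression switched on by copper sulfate through the metallothionein promoter; nearly all actives have a fitted effect of over 50% in size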", "conditions": "Drosophila S2 Gal4-VP16 UAS-luciferase, luminescence, 20 h; activity, negative = inhibition: at 53.6 µM (top of the series)", "values": [{"compound": "O=C(Nc1ccc(Cl)cn1)c1cc2ccccc2o1", "Potency": "inconclusive [inhibitor, single point]"}, {"compound": "CC1CCCC(C)N1C(=O)c1ccc(CS(=O)(=O)c2ccccc2)cc1", "note": "(configuration not stated)", "Potency": "inconclusive [inhibitor, single point]"}, {"compound": "CCCCCCC(=O)N1C/C=C\\C(c2ccc(OC)cc2)N(Cc2ccc(F)cc2)C(=O)C1Cc1ccccc1", "note": "(configuration not stated)", "Potency": "inconclusive [inhibitor, partial curve]"}, {"compound": "COc1ccc(-c2nnc(SCC(=O)NCc3ccco3)o2)cc1", "Potency": "inconclusive [inhibitor, full curve]"}, {"compound": "CCCCNc1nc(CC)c2c(c1C#N)CCCC2", "activity, negative = inhibition": "inactive: 3.47%"}, {"compound": "COc1cc([N+](=O)[O-])cc(/C=N/NC(=O)C(C)Nc2ccccc2C)c1O", "note": "(configuration not stated)", "Potency": "active: 0.501 µM"}, {"compound": "CCCn1c(=S)[nH]c2cc(Cl)ccc21", "Potency": "active: 17.8 µM"}, {"compound": "S=C(Nc1ccccc1Oc1ccccc1)NC1CCCC1", "Potency": "active: 7.08 µM"}, {"compound": "Fc1ccc(F)c(CNc2ncnc3cc(Cl)ccc23)c1", "Potency": "inconclusive [inhibitor, single point]"}, {"compound": "Cc1cc(Cl)ccc1NC(=S)NCc1cccs1", "Potency": "active: 8.91 µM"}, {"compound": "CC(=O)Nc1cccc(-n2nnc(SCC(=O)c3ccccc3)n2)c1", "activity, negative = inhibition": "inactive: 2.23%"}, {"compound": "Fc1ccc(/C=N/Nc2nc3ccccc3[nH]2)cc1F", "Potency": "inconclusive [inhibitor, single point]"}, {"compound": "O=C(NC1CCS(=O)(=O)C1)c1sc2ccccc2c1Cl", "note": "(configuration not stated)", "Potency": "inconclusive [activator, full curve]"}, {"compound": "COc1ccc2nc(N3CCCC(C(=O)NCCc4ccc(OC)c(OC)c4)C3)sc2c1", "note": "(configuration not stated)", "activity, negative = inhibition": "inactive: -7.05%"}, {"compound": "O=C(Oc1ccc2ccccc2c1Cl)N1CCCCCC1", "Potency": "inconclusive [inhibitor, single point]"}, {"compound": "CCOC(=O)N1CCN(C(=S)NC(=O)c2ccc(F)cc2)CC1", "Potency": "active: 3.55 µM"}, {"compound": "Cc1nc(SCc2ccccc2F)c2oc3ccccc3c2n1", "activity, negative = inhibition": "inactive: -2.4%"}, {"compound": "CCC(=O)Nc1nn(C)c2nc3c(C)cccc3cc12", "activity, negative = inhibition": "inactive: -5.52%"}, {"compound": "O=C(NC1(C(F)(F)F)N=C2SCCN2C1=O)c1ccccc1", "note": "(configuration not stated)", "Potency": "inconclusive [inhibitor, single point]"}, {"compound": "CC(=O)N1CCc2cc(C(=O)CN3CCN(c4ccccc4F)CC3)ccc21", "Potency": "inconclusive [inhibitor, single point]"}, {"compound": "Cc1occc1C(=O)NNC(=S)NCc1ccc(Cl)cc1", "Potency": "inconclusive [activator, single point]"}, {"compound": "O=C(Nc1cc(S(=O)(=O)N2CCCC2)ccc1OCC(F)(F)F)c1ccccc1F", "Potency": "inconclusive [activator, single point]"}]}]}
